Measurements published in PubChem BioAssay AID1347165 (National Center for Advancing Translational Sciences (NCATS), 2019).
Screen size: about 220,000 compounds; about 5,700 (2.6%) were called active. The shares of active, inactive and inconclusive entries below differ from those in the screen. Calls come from the whole dose curve; as a rule, active = well fitted inhibition curve with a large enough effect; inconclusive = small, poorly fitted or top-dose-only effect; inactive = no such curve, though single readings can be large or run the other way. Potencies beside an inconclusive call are fits to weak or partial responses and may not hold up.
Note: nearly all actives have a fitted effect of over 70% in size.
Potency is the fitted concentration of half-maximal effect; tags give direction and shape of the fitted curve.
Throughout, for activity change, negative = inhibition: 0% is about no effect.

These compounds were tested against Lysine-specific demethylase 5B (Homo sapiens) (UniProt Q9UGL1) (assay: Primary screen for KDM5B Histone Demethylases FDH-coupled qHTS). Conditions: FDH-coupled NADH fluorescence (FDH is formaldehyde dehydrogenase); activity change, negative = inhibition: at 57.7 µM (top of the series) unless noted.
Sequence of UniProt Q9UGL1 (Q9UGL1 whole entry, looked up): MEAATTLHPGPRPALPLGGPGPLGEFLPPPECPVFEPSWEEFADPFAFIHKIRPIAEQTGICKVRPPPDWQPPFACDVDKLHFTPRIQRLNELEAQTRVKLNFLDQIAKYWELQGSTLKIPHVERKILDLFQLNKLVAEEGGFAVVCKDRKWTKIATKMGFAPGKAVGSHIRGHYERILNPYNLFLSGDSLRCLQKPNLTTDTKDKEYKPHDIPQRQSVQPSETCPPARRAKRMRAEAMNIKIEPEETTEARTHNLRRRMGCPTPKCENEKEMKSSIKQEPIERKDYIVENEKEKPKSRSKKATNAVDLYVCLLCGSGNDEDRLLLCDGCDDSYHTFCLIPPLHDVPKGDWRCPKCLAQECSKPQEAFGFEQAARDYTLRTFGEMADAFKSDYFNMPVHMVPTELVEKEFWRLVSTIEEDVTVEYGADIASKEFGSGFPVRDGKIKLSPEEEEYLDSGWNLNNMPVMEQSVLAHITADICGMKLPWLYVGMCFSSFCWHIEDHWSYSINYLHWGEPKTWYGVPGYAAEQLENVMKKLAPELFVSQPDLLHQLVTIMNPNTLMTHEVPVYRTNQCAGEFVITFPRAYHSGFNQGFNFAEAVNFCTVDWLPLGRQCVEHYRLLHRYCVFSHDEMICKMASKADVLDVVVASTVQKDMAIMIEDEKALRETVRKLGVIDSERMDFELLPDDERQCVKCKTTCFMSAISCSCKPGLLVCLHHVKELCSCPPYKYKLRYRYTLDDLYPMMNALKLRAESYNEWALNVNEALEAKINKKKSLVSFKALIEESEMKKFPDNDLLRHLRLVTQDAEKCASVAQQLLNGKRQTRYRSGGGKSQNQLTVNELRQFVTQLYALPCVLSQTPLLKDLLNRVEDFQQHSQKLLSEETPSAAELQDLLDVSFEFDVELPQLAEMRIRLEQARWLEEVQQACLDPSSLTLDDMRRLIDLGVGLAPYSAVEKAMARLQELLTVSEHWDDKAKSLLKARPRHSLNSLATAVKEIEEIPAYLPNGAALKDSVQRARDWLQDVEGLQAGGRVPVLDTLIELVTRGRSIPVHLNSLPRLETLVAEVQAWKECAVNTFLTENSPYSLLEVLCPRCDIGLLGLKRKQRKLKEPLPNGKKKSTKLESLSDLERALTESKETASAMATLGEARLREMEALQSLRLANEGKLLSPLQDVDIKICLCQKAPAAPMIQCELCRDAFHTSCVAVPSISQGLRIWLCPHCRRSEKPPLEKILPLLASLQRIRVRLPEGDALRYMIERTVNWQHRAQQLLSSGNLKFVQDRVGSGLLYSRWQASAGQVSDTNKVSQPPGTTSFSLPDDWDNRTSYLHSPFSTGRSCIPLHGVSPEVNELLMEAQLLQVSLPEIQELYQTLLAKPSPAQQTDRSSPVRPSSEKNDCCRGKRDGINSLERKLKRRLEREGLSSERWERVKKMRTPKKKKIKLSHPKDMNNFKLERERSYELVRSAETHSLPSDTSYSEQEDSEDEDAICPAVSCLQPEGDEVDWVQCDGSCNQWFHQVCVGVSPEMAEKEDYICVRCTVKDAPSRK
Procedure, shortened: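 Compound dilutions met 200 nM (final) KDM5BΔAP for 10 min at room temperature before substrate addition. The substrate mix held 12.5 µM H3K4me3 with cofactors 25 µM α-ketoglutarate and 50 µM Fe²⁺. NADH signal gain over 30 min defined activity.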
In the case of `COc1ccc(C(=O)N2CCC(Cc3nc(-c4ccccc4)n[nH]3)CC2)cc1OC`, the “activity change, negative = inhibition” value is reported as inactive: -43.9%.
`Cc1nn(-c2ccccc2)c2nc(C3CC3)cc(C(=O)Nc3cccc(F)c3)c12` was tested, and the Potency was inconclusive: 35.5 µM [inhibitor, partial curve, poor fit].
For `CCO[C@H]1C[C@@H](O)C12CCN(C(=O)c1cc(S(N)(=O)=O)ccc1F)CC2`, the Potency was inconclusive: 0.631 µM [inhibitor, partial curve, poor fit].
`Cc1ccc(S(=O)(=O)/N=C2\C=C(NS(=O)(=O)c3ccccc3)C(=O)c3ccccc32)cc1` was tested, and the Potency was inconclusive: 35.5 µM [inhibitor, single point].
In the case of `CCCCOc1ccc(/C=C/C(=O)c2ccc(Br)cc2)cc1`, the “activity change, negative = inhibition” value is reported as inactive: 15.6%.
For `COc1cccc(-c2noc(CC3CCN(C(=O)COc4cccc(C)c4)CC3)n2)c1`, the Potency was inconclusive: 20 µM [inhibitor, partial curve, poor fit].
For `COc1cccc(NC(=O)c2oc3ccccc3c2NC(=O)c2ccccc2C)c1`, the Potency was inconclusive: 31.6 µM [inhibitor, partial curve, poor fit].
For `O=C(N[C@H]1CO[C@H]2[C@@H]1OC[C@@H]2Nc1nccc(-c2ccccc2)n1)N1CCOCC1`, the Potency was inconclusive: 39.8 µM [inhibitor, partial curve, poor fit].
In the case of `Brc1ccsc1/C=N/Nc1ccccc1`, the Potency is reported as inconclusive: 17.8 µM [inhibitor, partial curve, poor fit].
`O=C(NCc1ccc(S(=O)(=O)N2CCOCC2)cc1)c1cc(Cl)ccc1O` was tested, and the “activity change, negative = inhibition” value was inactive: -6.14%.
In the case of `Cc1cc(NC(=O)C(C)Sc2nnc3c(Cl)cc(C(F)(F)F)cn23)no1` (stereo not drawn), the Potency is reported as inconclusive: 39.8 µM [inhibitor, single point].
With `Cc1noc(C)c1-c1cc2cc(CO)oc2c(NCC2CCOCC2)n1` the Potency was active: 31.6 µM.
For `CC(C)CCNc1nc2c(-c3ccccc3)nnn2c2ccccc12`, the “activity change, negative = inhibition” value was inactive: -8.41%.
With `O=C(NCc1ccccc1-n1cccn1)C1NCCc2[nH]cnc21` (stereo not drawn) the Potency was inconclusive: 17.8 µM [inhibitor, partial curve, poor fit].
In the case of `CC(=O)c1ccc(-c2ccc(C(=O)OC(C)C#N)o2)cc1` (stereo not drawn), the “activity change, negative = inhibition” value is reported as inactive: -77.4%.
For `CC(=O)Nc1ccc(Nc2nc(-c3c(C)nc4ccccn34)cs2)cc1`, the Potency was inconclusive: 22.4 µM [inhibitor, single point].
For `O=C(N/N=C/c1cc(Cl)c(O)c(Cl)c1)c1cc2c(ccc3ccccc32)o1`, the Potency was inconclusive: 25.1 µM [inhibitor, partial curve, poor fit].
For `N#C/C(=C/c1ccccc1OC(F)F)C(=O)Nc1cccc(C(F)(F)F)c1`, the Potency was inconclusive: 39.8 µM [inhibitor, single point].
In the case of `CN(C)CCSc1ccc2c(c1)OCCCO2`, the “activity change, negative = inhibition” value is reported as inactive: 1.02%.
With `O=C(NCC(F)(F)F)c1cc(C2CC2)nc2onc(C3CCCNC3)c12` (stereo not drawn) the Potency was inconclusive: 50.1 µM [inhibitor, partial curve, poor fit].
With `Cc1cccc(NC(=O)CSc2nnc(Cc3ccccc3)n2-n2cccc2)c1C` the “activity change, negative = inhibition” value was inactive: 4.23%.
With `Cc1ccc(NC(=O)Cn2c(=O)n(C)c(=O)c3sc(N4CCCC4)nc32)c(Cl)c1` the “activity change, negative = inhibition” value was inactive: -10.6%.
In the case of `Cc1ccc(S(=O)(=O)N(CC(=O)Nc2cccnc2)c2cc(Cl)ccc2C)cc1`, the Potency is reported as inconclusive: 15.8 µM [inhibitor, partial curve, poor fit].
`CCOC(=O)CN1C(=O)N(c2ccc(C)c(C)c2)S(=O)(=O)c2ccccc21` was tested, and the “activity change, negative = inhibition” value was inactive: -11%.
In the case of `CC(=O)N1CCN(C(=O)c2c[nH]c3ncccc23)CC1`, the “activity change, negative = inhibition” value is reported as inactive: -10.1% [at 86.2 µM].
With `CN(C)c1ccc(NC(=O)CC2C=CCC2)cc1` (stereo not drawn) the “activity change, negative = inhibition” value was inactive: -5.21%.
`COc1cc(OC)c(OC)cc1CNC(=O)c1cc(Br)ccc1O` was tested, and the Potency was inconclusive: 20 µM [inhibitor, single point].
For `Cc1ccc(-n2ncc3c(NCCCN(C)C)ncnc32)cc1Cl`, the Potency was inconclusive: 31.6 µM [inhibitor, partial curve, poor fit].
`O=C(Cn1ncc2c3ccccc3n(Cc3ccccc3)c2c1=O)NCc1ccccn1` was tested, and the Potency was inconclusive: 15.8 µM [inhibitor, partial curve, poor fit].
With `COc1ccc(Nc2ncc3c(n2)CCN(Cc2sccc2C)C3)c(OC)c1` the activity change, negative = inhibition was inconclusive: -32.3% [inhibitor].
With `O=[N+]([O-])c1ccc(S(=O)(=O)N2CCn3cccc3C2c2ccc(Br)cc2)cc1` (stereo not drawn) the Potency was inconclusive: 15.8 µM [inhibitor, partial curve, poor fit].
In the case of `COc1ccc2oc(-c3cccc(NC(=O)c4cc([N+](=O)[O-])ccc4N4CCOCC4)c3)nc2c1`, the activity change, negative = inhibition is reported as inconclusive: -32.2% [inhibitor].
With `COc1cc(C2c3c(-c4c(C)cc(C)cc4O)n[nH]c3C(=O)N2Cc2ccco2)cc(OC)c1OC` (stereo not drawn) the Potency was inconclusive: 1 µM [inhibitor, full curve, poor fit].
`CC1CCN(CC2CCCCCN2C(=O)CC2CCCC2)CC1` (stereo not drawn) was tested, and the Potency was inconclusive: 35.5 µM [inhibitor, single point].
`CC(NC(=O)c1ccc2nccn2c1)c1ccc(F)cc1` (stereo not drawn) was tested, and the Potency was active: 35.5 µM.
With `CC1=C[C@@H](CNS(=O)(=O)c2ccccc2)[C@H](C(C)C)C[C@H]1CC(=O)O` the Potency was inconclusive: 39.8 µM [inhibitor, single point].
`CCCC(C#N)NC(=O)Cc1c[nH]c2ccccc12` (stereo not drawn) was tested, and the “activity change, negative = inhibition” value was inactive: 21.2%.
`Cc1cccc(-c2nc(C#N)c(N3CCN(Cc4ccccc4)CC3)o2)c1` was tested, and the Potency was inconclusive: 1.78 µM [inhibitor, partial curve, poor fit].
With `CNC(=O)[C@@H](C1CC1)N1CCC[C@H]1C(=O)NCC(C)C` the Potency was inconclusive: 35.5 µM [inhibitor, partial curve].
In the case of `CC(=O)Nc1ccc(NC(=O)C2CC(=O)N(c3n[nH]c4cccc(F)c34)C2)cc1` (stereo not drawn), the Potency is reported as active: 35.5 µM.
For `O=C(N[C@H]1CO[C@H]2[C@@H]1OC[C@@H]2n1cc(CC2CCCCC2)nn1)C1CC1`, the “activity change, negative = inhibition” value was inactive: -4.86% [at 86.2 µM].
With `CCC1=C(C(=O)OC)C(c2cccc(F)c2)N2C(CC(=O)NCc3ccco3)=CSC2=N1` (stereo not drawn) the Potency was inconclusive: 17.8 µM [inhibitor, partial curve, poor fit].
`CCN(CC)S(=O)(=O)c1cc(-c2ccc(=O)n(C(C)C(=O)Nc3cccc(C#N)c3)n2)ccc1C` (stereo not drawn) was tested, and the Potency was inconclusive: 28.2 µM [inhibitor, single point].
